Key:
Assay in all cases: SPR, Protein L capture
[1] = target: T1, PRYSPRY domain of human TRIM21 with N-terminal 6xHis tag (human)
T1 construct: Expressed in E. coli; also called hTRIM21; human TRIM21.PRYSPRY
T1 chain: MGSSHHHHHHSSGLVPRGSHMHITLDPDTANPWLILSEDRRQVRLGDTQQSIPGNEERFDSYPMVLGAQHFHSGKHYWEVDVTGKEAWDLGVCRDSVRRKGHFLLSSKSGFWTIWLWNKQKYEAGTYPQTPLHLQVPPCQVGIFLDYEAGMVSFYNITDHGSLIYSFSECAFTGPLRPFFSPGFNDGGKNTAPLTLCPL

[2] = target: T2, human FcRn (human, UniProt P55899 partial chain; P61769 partial chain, limits assumed)
T2 construct: also called hFcRn

[3] = target: T3, PRYSPRY domain of mouse TRIM21 with N-terminal 6xHis tag (mouse)
T3 construct: Expressed in E. coli; also called mTRIM21; mouse TRIM21.PRYSPRY
T3 chain: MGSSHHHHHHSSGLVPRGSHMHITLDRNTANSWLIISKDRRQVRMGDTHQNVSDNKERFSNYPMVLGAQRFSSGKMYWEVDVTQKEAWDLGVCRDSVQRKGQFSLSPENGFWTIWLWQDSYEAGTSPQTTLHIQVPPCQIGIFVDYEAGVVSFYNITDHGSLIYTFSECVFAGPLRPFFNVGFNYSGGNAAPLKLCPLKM

T2 sequence (P55899 24-290 limits assumed, form in doubt, chain 1 of 2): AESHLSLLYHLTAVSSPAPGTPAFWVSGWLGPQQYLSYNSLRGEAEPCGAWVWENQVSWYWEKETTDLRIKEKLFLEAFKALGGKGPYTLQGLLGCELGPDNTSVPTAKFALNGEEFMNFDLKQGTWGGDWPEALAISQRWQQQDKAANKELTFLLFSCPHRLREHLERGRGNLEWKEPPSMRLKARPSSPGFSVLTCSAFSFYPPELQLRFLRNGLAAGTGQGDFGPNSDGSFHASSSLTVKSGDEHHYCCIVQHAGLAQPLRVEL
T2 sequence (P61769 21-119 limits assumed, form in doubt, chain 2 of 2, further chain): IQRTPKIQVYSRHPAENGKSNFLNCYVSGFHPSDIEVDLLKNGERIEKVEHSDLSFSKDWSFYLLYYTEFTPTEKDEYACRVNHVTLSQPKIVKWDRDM

B1: MRAH-G1d/MRAL-KT0 L309A (antibody, human IgG1, kappa)
heavy: QVQLQESGPGLVRPSQTLSLTCTVSGYSITSDHAWSWVRQPPGRGLEWIGYISYSGITTYNPSLKSRVTMLRDTSKNQFSLRLSSVTAADTAVYYCARSLARTTAMDYWGQGSLVTVSS[human IgG1 constant region with L309A (EU numbers) omitted here]
light: DIQMTQSPSSLSASVGDRVTITCRASQDISSYLNWYQQKPGKAPKLLIYYTSRLHSGVPSRFSGSGSGTDFTFTISSLQPEDIATYYCQQGNTLPYTFGQGTKVEIKRTVAAPSVFIFPPSDEQLKSGTASVVCLLNNFYPREAKVQWKVDNALQSGNSQESVTEQDSKDSTYSLSSTLTLSKADYEKHKVYACEVTHQGLSSPVTKSFNRGEC
notes: copies: 2 + 2
- hTRIM21 binding level ratio (variant/control antibody) [1]: 0.774
- hFcRn binding level ratio (variant/control antibody) [2]: 0.71
- mTRIM21 binding level ratio (variant/control antibody) [3]: 2

B2: MRAH-G1d/MRAL-KT0 D312A (antibody, human IgG1, kappa)
heavy: QVQLQESGPGLVRPSQTLSLTCTVSGYSITSDHAWSWVRQPPGRGLEWIGYISYSGITTYNPSLKSRVTMLRDTSKNQFSLRLSSVTAADTAVYYCARSLARTTAMDYWGQGSLVTVSS[human IgG1 constant region with D312A (EU numbers) omitted here]
light: DIQMTQSPSSLSASVGDRVTITCRASQDISSYLNWYQQKPGKAPKLLIYYTSRLHSGVPSRFSGSGSGTDFTFTISSLQPEDIATYYCQQGNTLPYTFGQGTKVEIKRTVAAPSVFIFPPSDEQLKSGTASVVCLLNNFYPREAKVQWKVDNALQSGNSQESVTEQDSKDSTYSLSSTLTLSKADYEKHKVYACEVTHQGLSSPVTKSFNRGEC
notes: copies: 2 + 2
- hTRIM21 binding level ratio (variant/control antibody) [1]: 1.14
- hFcRn binding level ratio (variant/control antibody) [2]: 1.14
- mTRIM21 binding level ratio (variant/control antibody) [3]: 2.57

B3: MRAH-G1d/MRAL-KT0 D312E (antibody, human IgG1, kappa)
heavy: QVQLQESGPGLVRPSQTLSLTCTVSGYSITSDHAWSWVRQPPGRGLEWIGYISYSGITTYNPSLKSRVTMLRDTSKNQFSLRLSSVTAADTAVYYCARSLARTTAMDYWGQGSLVTVSS[human IgG1 constant region with D312E (EU numbers) omitted here]
light: DIQMTQSPSSLSASVGDRVTITCRASQDISSYLNWYQQKPGKAPKLLIYYTSRLHSGVPSRFSGSGSGTDFTFTISSLQPEDIATYYCQQGNTLPYTFGQGTKVEIKRTVAAPSVFIFPPSDEQLKSGTASVVCLLNNFYPREAKVQWKVDNALQSGNSQESVTEQDSKDSTYSLSSTLTLSKADYEKHKVYACEVTHQGLSSPVTKSFNRGEC
notes: copies: 2 + 2
- hTRIM21 binding level ratio (variant/control antibody) [1]: 0.933
- hFcRn binding level ratio (variant/control antibody) [2]: 0.5
- mTRIM21 binding level ratio (variant/control antibody) [3]: 2.35

B4: MRAH-G1d/MRAL-KT0 D312F (antibody, human IgG1, kappa)
heavy: QVQLQESGPGLVRPSQTLSLTCTVSGYSITSDHAWSWVRQPPGRGLEWIGYISYSGITTYNPSLKSRVTMLRDTSKNQFSLRLSSVTAADTAVYYCARSLARTTAMDYWGQGSLVTVSS[human IgG1 constant region with D312F (EU numbers) omitted here]
light: DIQMTQSPSSLSASVGDRVTITCRASQDISSYLNWYQQKPGKAPKLLIYYTSRLHSGVPSRFSGSGSGTDFTFTISSLQPEDIATYYCQQGNTLPYTFGQGTKVEIKRTVAAPSVFIFPPSDEQLKSGTASVVCLLNNFYPREAKVQWKVDNALQSGNSQESVTEQDSKDSTYSLSSTLTLSKADYEKHKVYACEVTHQGLSSPVTKSFNRGEC
notes: copies: 2 + 2
- hTRIM21 binding level ratio (variant/control antibody) [1]: 1.24
- hFcRn binding level ratio (variant/control antibody) [2]: 0.12
- mTRIM21 binding level ratio (variant/control antibody) [3]: 2.86

B5: MRAH-G1d/MRAL-KT0 D312G (antibody, human IgG1, kappa)
heavy: QVQLQESGPGLVRPSQTLSLTCTVSGYSITSDHAWSWVRQPPGRGLEWIGYISYSGITTYNPSLKSRVTMLRDTSKNQFSLRLSSVTAADTAVYYCARSLARTTAMDYWGQGSLVTVSS[human IgG1 constant region with D312G (EU numbers) omitted here]
light: DIQMTQSPSSLSASVGDRVTITCRASQDISSYLNWYQQKPGKAPKLLIYYTSRLHSGVPSRFSGSGSGTDFTFTISSLQPEDIATYYCQQGNTLPYTFGQGTKVEIKRTVAAPSVFIFPPSDEQLKSGTASVVCLLNNFYPREAKVQWKVDNALQSGNSQESVTEQDSKDSTYSLSSTLTLSKADYEKHKVYACEVTHQGLSSPVTKSFNRGEC
notes: copies: 2 + 2
- hTRIM21 binding level ratio (variant/control antibody) [1]: 1.14
- hFcRn binding level ratio (variant/control antibody) [2]: 0.91
- mTRIM21 binding level ratio (variant/control antibody) [3]: 2.73

B6: MRAH-G1d/MRAL-KT0 D312H (antibody, human IgG1, kappa)
heavy: QVQLQESGPGLVRPSQTLSLTCTVSGYSITSDHAWSWVRQPPGRGLEWIGYISYSGITTYNPSLKSRVTMLRDTSKNQFSLRLSSVTAADTAVYYCARSLARTTAMDYWGQGSLVTVSS[human IgG1 constant region with D312H (EU numbers) omitted here]
light: DIQMTQSPSSLSASVGDRVTITCRASQDISSYLNWYQQKPGKAPKLLIYYTSRLHSGVPSRFSGSGSGTDFTFTISSLQPEDIATYYCQQGNTLPYTFGQGTKVEIKRTVAAPSVFIFPPSDEQLKSGTASVVCLLNNFYPREAKVQWKVDNALQSGNSQESVTEQDSKDSTYSLSSTLTLSKADYEKHKVYACEVTHQGLSSPVTKSFNRGEC
notes: copies: 2 + 2
- hTRIM21 binding level ratio (variant/control antibody) [1]: 1.29
- hFcRn binding level ratio (variant/control antibody) [2]: 0.85
- mTRIM21 binding level ratio (variant/control antibody) [3]: 2.86

B7: MRAH-G1d/MRAL-KT0 D312I (antibody, human IgG1, kappa)
heavy: QVQLQESGPGLVRPSQTLSLTCTVSGYSITSDHAWSWVRQPPGRGLEWIGYISYSGITTYNPSLKSRVTMLRDTSKNQFSLRLSSVTAADTAVYYCARSLARTTAMDYWGQGSLVTVSS[human IgG1 constant region with D312I (EU numbers) omitted here]
light: DIQMTQSPSSLSASVGDRVTITCRASQDISSYLNWYQQKPGKAPKLLIYYTSRLHSGVPSRFSGSGSGTDFTFTISSLQPEDIATYYCQQGNTLPYTFGQGTKVEIKRTVAAPSVFIFPPSDEQLKSGTASVVCLLNNFYPREAKVQWKVDNALQSGNSQESVTEQDSKDSTYSLSSTLTLSKADYEKHKVYACEVTHQGLSSPVTKSFNRGEC
notes: copies: 2 + 2
- hTRIM21 binding level ratio (variant/control antibody) [1]: 1.05
- hFcRn binding level ratio (variant/control antibody) [2]: 0.46
- mTRIM21 binding level ratio (variant/control antibody) [3]: 2.88

B8: MRAH-G1d/MRAL-KT0 D312K (antibody, human IgG1, kappa)
heavy: QVQLQESGPGLVRPSQTLSLTCTVSGYSITSDHAWSWVRQPPGRGLEWIGYISYSGITTYNPSLKSRVTMLRDTSKNQFSLRLSSVTAADTAVYYCARSLARTTAMDYWGQGSLVTVSS[human IgG1 constant region with D312K (EU numbers) omitted here]
light: DIQMTQSPSSLSASVGDRVTITCRASQDISSYLNWYQQKPGKAPKLLIYYTSRLHSGVPSRFSGSGSGTDFTFTISSLQPEDIATYYCQQGNTLPYTFGQGTKVEIKRTVAAPSVFIFPPSDEQLKSGTASVVCLLNNFYPREAKVQWKVDNALQSGNSQESVTEQDSKDSTYSLSSTLTLSKADYEKHKVYACEVTHQGLSSPVTKSFNRGEC
notes: copies: 2 + 2
- hTRIM21 binding level ratio (variant/control antibody) [1]: 1.19
- hFcRn binding level ratio (variant/control antibody) [2]: 0.9
- mTRIM21 binding level ratio (variant/control antibody) [3]: 2.96

B9: MRAH-G1d/MRAL-KT0 D312L (antibody, human IgG1, kappa)
heavy: QVQLQESGPGLVRPSQTLSLTCTVSGYSITSDHAWSWVRQPPGRGLEWIGYISYSGITTYNPSLKSRVTMLRDTSKNQFSLRLSSVTAADTAVYYCARSLARTTAMDYWGQGSLVTVSS[human IgG1 constant region with D312L (EU numbers) omitted here]
light: DIQMTQSPSSLSASVGDRVTITCRASQDISSYLNWYQQKPGKAPKLLIYYTSRLHSGVPSRFSGSGSGTDFTFTISSLQPEDIATYYCQQGNTLPYTFGQGTKVEIKRTVAAPSVFIFPPSDEQLKSGTASVVCLLNNFYPREAKVQWKVDNALQSGNSQESVTEQDSKDSTYSLSSTLTLSKADYEKHKVYACEVTHQGLSSPVTKSFNRGEC
notes: copies: 2 + 2
- hTRIM21 binding level ratio (variant/control antibody) [1]: 0.769
- hFcRn binding level ratio (variant/control antibody) [2]: 0.03
- mTRIM21 binding level ratio (variant/control antibody) [3]: 1.99

B10: MRAH-G1d/MRAL-KT0 H433S (antibody, human IgG1, kappa)
heavy: QVQLQESGPGLVRPSQTLSLTCTVSGYSITSDHAWSWVRQPPGRGLEWIGYISYSGITTYNPSLKSRVTMLRDTSKNQFSLRLSSVTAADTAVYYCARSLARTTAMDYWGQGSLVTVSS[human IgG1 constant region with H433S (EU numbers) omitted here]
light: DIQMTQSPSSLSASVGDRVTITCRASQDISSYLNWYQQKPGKAPKLLIYYTSRLHSGVPSRFSGSGSGTDFTFTISSLQPEDIATYYCQQGNTLPYTFGQGTKVEIKRTVAAPSVFIFPPSDEQLKSGTASVVCLLNNFYPREAKVQWKVDNALQSGNSQESVTEQDSKDSTYSLSSTLTLSKADYEKHKVYACEVTHQGLSSPVTKSFNRGEC
notes: copies: 2 + 2
- hTRIM21 binding level ratio (variant/control antibody) [1]: -0.028
- mTRIM21 binding level ratio (variant/control antibody) [3]: -0.203

B11: MRAH-G1d/MRAL-KT0 L432A (antibody, human IgG1, kappa)
heavy: QVQLQESGPGLVRPSQTLSLTCTVSGYSITSDHAWSWVRQPPGRGLEWIGYISYSGITTYNPSLKSRVTMLRDTSKNQFSLRLSSVTAADTAVYYCARSLARTTAMDYWGQGSLVTVSS[human IgG1 constant region with L432A (EU numbers) omitted here]
light: DIQMTQSPSSLSASVGDRVTITCRASQDISSYLNWYQQKPGKAPKLLIYYTSRLHSGVPSRFSGSGSGTDFTFTISSLQPEDIATYYCQQGNTLPYTFGQGTKVEIKRTVAAPSVFIFPPSDEQLKSGTASVVCLLNNFYPREAKVQWKVDNALQSGNSQESVTEQDSKDSTYSLSSTLTLSKADYEKHKVYACEVTHQGLSSPVTKSFNRGEC
- hTRIM21 binding level ratio (variant/control antibody) [1]: 0.575
- mTRIM21 binding level ratio (variant/control antibody) [3]: 2.38
